Literature values, collected in publication PMC11181328 (Journal of Medicinal Chemistry, 2024).

Details: same conditions; cited from earlier work

CN(C(=O)/C=C/c1ccoc1)[C@H]1CC[C@@]2(O)[C@H]3Cc4ccc(O)c5c4[C@@]2(CCN3CC2CC2)[C@H]1O5.Cl [NMF]
half-life in human liver S9 fraction: over 60 min
